# Data taken from a collection of fitness landscapes (doi:10.1016/j.celrep.2020.107928).
# The full ranking holds about 81,000 sequences; the median of “one-hybrid fitness for binding NBS DNA” is about -0.1, and the highest 2% start at about 0.36. Some of the results follow.
# B1: Caulobacter ParB omega fusion; a variant is named by its letters at X, in order, B8GW30 (parent)
# chain: MESVVVGEPGMSEGRRGLGRGLSALLGEVDAAPAQAPGEQLGGSREAPIEILQRNPDQPRRTFREEDLEDLSNSIREKGVLQPILVRPSPDTAGEYQIVAGERAWRAAQRAGLKTVPIMVRELDDLAVLEIGIIENVQRADLNVLEEALSYKVLMEKFERTQENIAQTIGKSXSHVANXMRLLXLPDEVQSYLVSGELTAXHARAIAAAADPVALAKQIIEGGLSVRETEALARKAPNLSAGKSKGGRPPRVKDTDTQALESDLSSVLGLDVSIDHRGSTGTLTITYATLEQLDDLCNRLTRGI
# Variants of: B1
# Assay: one-hybrid fitness for binding NBS DNA (the Noc-binding site; scaled: cognate 1, non-cognate 0); higher = stronger binding
# Conditions: with NBS DNA site
# Method in brief: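 Selection: bacterial one-hybrid in E. coli USO, HIS3 reporter with the site 19 bp from the promoter, 48 hours at 37°C on M9-minus-histidine plus 0.1 mM IPTG and 5 mM 3-AT. Libraries were Caulobacter ParB with four randomised specificity codons, sequenced on Illumina before and after selection. Fitness is the rescaled log change in variant-to-wild-type read ratio, anchored to the cognate and non-cognate sites.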
row,Variant,one-hybrid fitness for binding NBS DNA
1,LKQC,≤ 0.2
2,WNLV,≤ 0.2
3,ATCT,≤ 0.2
4,SSKK,≤ 0.2
5,YPNR,≤ 0.2
6,DRMN,≤ 0.2
7,AWSI,≤ 0.2
8,WRLA,≤ 0.2
9,HALR,≤ 0.2
10,LSVL,≤ 0.2
11,QSWE,≤ 0.2
12,HYGY,≤ 0.2
13,WTFA,≤ 0.2
14,DYCC,≤ 0.2
15,TRAM,≤ 0.2
16,DELG,≤ 0.2
17,AFDM,≤ 0.2
18,RRHW,≤ 0.2
19,APDE,≤ 0.2
20,HSHG,≤ 0.2
21,TAKE,≤ 0.2
22,WMMC,≤ 0.2
23,ARNH,≤ 0.2
24,RRER,0.629
25,QGGK,≤ 0.2

row,Variant,one-hybrid fitness for binding NBS DNA
1,DYDG,≤ 0.2
2,QQKG,0.437
3,CKIS,≤ 0.2
4,AEAS,≤ 0.2
5,NYFG,≤ 0.2
6,TFKD,≤ 0.2
7,KLDC,≤ 0.2
8,MKYF,0.356
9,HTIK,≤ 0.2
10,LGAT,≤ 0.2
11,KSMA,≤ 0.2
12,VILR,≤ 0.2
13,QLWG,≤ 0.2
14,TRFQ,≤ 0.2
15,TAKV,≤ 0.2
16,VGTM,≤ 0.2
17,PRAW,≤ 0.2
18,LLPS,≤ 0.2
19,HMVF,≤ 0.2
20,IVAC,≤ 0.2
21,HLKI,≤ 0.2
22,NGAR,≤ 0.2
23,LWEG,≤ 0.2
24,APKV,≤ 0.2
25,RKGW,≤ 0.2

row,Variant,one-hybrid fitness for binding NBS DNA
1,HLKR,≤ 0.2
2,SKVT,≤ 0.2
3,QAHL,≤ 0.2
4,KMMC,≤ 0.2
5,GHCT,≤ 0.2
6,FWRM,≤ 0.2
7,VDQE,≤ 0.2
8,VQWG,≤ 0.2
9,RHPQ,≤ 0.2
10,YEEA,≤ 0.2
11,GMHC,≤ 0.2
12,SFSG,≤ 0.2
13,HFRV,≤ 0.2
14,KFAV,≤ 0.2
15,GLIR,≤ 0.2
16,QVVS,≤ 0.2
17,ARPI,≤ 0.2
18,KMSR,≤ 0.2
19,AENS,≤ 0.2
20,LTHA,≤ 0.2
21,RLWA,≤ 0.2
22,ESSE,≤ 0.2
23,MCHL,≤ 0.2
24,ANFR,≤ 0.2
25,KNLR,≤ 0.2

row,Variant,one-hybrid fitness for binding NBS DNA
1,VEDV,≤ 0.2
2,AVPF,≤ 0.2
3,QCWT,0.461
4,QCHA,0.422
5,SFWQ,≤ 0.2
6,SHGT,≤ 0.2
7,REMH,≤ 0.2
8,TQIY,≤ 0.2
9,GGDR,≤ 0.2
10,IYMS,≤ 0.2
11,AYIG,≤ 0.2
12,ATDL,≤ 0.2
13,RLKN,≤ 0.2
14,YTRF,≤ 0.2
15,TMDS,≤ 0.2
16,SDVL,≤ 0.2
17,DIND,≤ 0.2
18,YGVW,≤ 0.2
19,QDTN,≤ 0.2
20,VWLT,≤ 0.2
21,SPFM,≤ 0.2
22,IWKT,≤ 0.2
23,QTQT,0.577
24,RTRL,≤ 0.2
25,QWKC,≤ 0.2

row,Variant,one-hybrid fitness for binding NBS DNA
1,HICC,≤ 0.2
2,RAGK,≤ 0.2
3,QKII,≤ 0.2
4,PNMC,≤ 0.2
5,ASNI,≤ 0.2
6,TWFT,≤ 0.2
7,MDFR,≤ 0.2
8,PYAL,≤ 0.2
9,CGHC,≤ 0.2
10,PAML,≤ 0.2
11,RNMV,≤ 0.2
12,NVGG,≤ 0.2
13,TKTC,≤ 0.2
14,SNSD,≤ 0.2
15,LTKP,≤ 0.2
16,RKYG,≤ 0.2
17,EKRC,≤ 0.2
18,GFIS,≤ 0.2
19,HPVE,≤ 0.2
20,QCGA,0.364
21,ATIV,≤ 0.2
22,GPSC,≤ 0.2
23,LNNR,≤ 0.2
24,SNPA,≤ 0.2
25,RQTV,≤ 0.2

row,Variant,one-hybrid fitness for binding NBS DNA
1,SGQH,≤ 0.2
2,RRAD,≤ 0.2
3,TPPT,≤ 0.2
4,KRTS,0.448
5,KKKK,≤ 0.2
6,TVYC,≤ 0.2
7,QNST,≤ 0.2
8,LDLI,≤ 0.2
9,FDHL,≤ 0.2
10,HSYD,≤ 0.2
11,RGKM,≤ 0.2
12,HSTK,≤ 0.2
13,TTGT,≤ 0.2
14,EELL,≤ 0.2
15,RAYR,0.412
16,KSCC,≤ 0.2
17,HSFC,≤ 0.2
18,RLPW,≤ 0.2
19,RRHE,≤ 0.2
20,THHG,≤ 0.2
21,CNKR,≤ 0.2
22,EVPA,≤ 0.2
23,EAKR,0.3
24,ICWS,≤ 0.2
25,RASM,≤ 0.2

row,Variant,one-hybrid fitness for binding NBS DNA
1,NVVG,≤ 0.2
2,SHHR,≤ 0.2
3,LMMM,≤ 0.2
4,CMGL,≤ 0.2
5,IINT,≤ 0.2
6,RQYK,≤ 0.2
7,HMVG,≤ 0.2
8,RWQD,≤ 0.2
9,RRAK,0.254
10,QKCW,≤ 0.2
11,FADA,≤ 0.2
12,KASP,≤ 0.2
13,RIIQ,≤ 0.2
14,IGTS,≤ 0.2
15,RCDF,≤ 0.2
16,RVGC,≤ 0.2
17,LKNT,≤ 0.2
18,LEPL,≤ 0.2
19,SQPL,≤ 0.2
20,THNL,≤ 0.2
21,RKAF,≤ 0.2
22,ELRE,≤ 0.2
23,IWLS,≤ 0.2
24,GHVD,≤ 0.2
25,QPHW,≤ 0.2

row,Variant,one-hybrid fitness for binding NBS DNA
1,SADL,≤ 0.2
2,FQLG,≤ 0.2
3,DLCR,≤ 0.2
4,ANTS,≤ 0.2
5,NPPR,0.218
6,GTQT,≤ 0.2
7,PCEL,≤ 0.2
8,KCDS,≤ 0.2
9,CHYD,≤ 0.2
10,AADF,≤ 0.2
11,QQCT,0.528
12,PLVD,≤ 0.2
13,MRYT,≤ 0.2
14,SFRC,≤ 0.2
15,RRRI,0.451
16,CWLR,≤ 0.2
17,KAPS,≤ 0.2
18,HASR,≤ 0.2
19,WLKR,≤ 0.2
20,ELTI,≤ 0.2
